# The whole screen tested about 310,000 compounds, of which about 14,000 (4.5%) showed an effect of 50% or more. Effects have a minus sign here. This is one part of the list.
# Target: human ether-à-go-go-related gene (hERG) potassium channel (human, UniProt Q12809)
# Test: primary screen, population patch clamp on CHO cells stably expressing hERG
# 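Also: peak tail current of the secondary pulse compared with the same well before compound.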
# Sequence of human ether-à-go-go-related gene (hERG) potassium channel (Q12809 whole entry, looked up): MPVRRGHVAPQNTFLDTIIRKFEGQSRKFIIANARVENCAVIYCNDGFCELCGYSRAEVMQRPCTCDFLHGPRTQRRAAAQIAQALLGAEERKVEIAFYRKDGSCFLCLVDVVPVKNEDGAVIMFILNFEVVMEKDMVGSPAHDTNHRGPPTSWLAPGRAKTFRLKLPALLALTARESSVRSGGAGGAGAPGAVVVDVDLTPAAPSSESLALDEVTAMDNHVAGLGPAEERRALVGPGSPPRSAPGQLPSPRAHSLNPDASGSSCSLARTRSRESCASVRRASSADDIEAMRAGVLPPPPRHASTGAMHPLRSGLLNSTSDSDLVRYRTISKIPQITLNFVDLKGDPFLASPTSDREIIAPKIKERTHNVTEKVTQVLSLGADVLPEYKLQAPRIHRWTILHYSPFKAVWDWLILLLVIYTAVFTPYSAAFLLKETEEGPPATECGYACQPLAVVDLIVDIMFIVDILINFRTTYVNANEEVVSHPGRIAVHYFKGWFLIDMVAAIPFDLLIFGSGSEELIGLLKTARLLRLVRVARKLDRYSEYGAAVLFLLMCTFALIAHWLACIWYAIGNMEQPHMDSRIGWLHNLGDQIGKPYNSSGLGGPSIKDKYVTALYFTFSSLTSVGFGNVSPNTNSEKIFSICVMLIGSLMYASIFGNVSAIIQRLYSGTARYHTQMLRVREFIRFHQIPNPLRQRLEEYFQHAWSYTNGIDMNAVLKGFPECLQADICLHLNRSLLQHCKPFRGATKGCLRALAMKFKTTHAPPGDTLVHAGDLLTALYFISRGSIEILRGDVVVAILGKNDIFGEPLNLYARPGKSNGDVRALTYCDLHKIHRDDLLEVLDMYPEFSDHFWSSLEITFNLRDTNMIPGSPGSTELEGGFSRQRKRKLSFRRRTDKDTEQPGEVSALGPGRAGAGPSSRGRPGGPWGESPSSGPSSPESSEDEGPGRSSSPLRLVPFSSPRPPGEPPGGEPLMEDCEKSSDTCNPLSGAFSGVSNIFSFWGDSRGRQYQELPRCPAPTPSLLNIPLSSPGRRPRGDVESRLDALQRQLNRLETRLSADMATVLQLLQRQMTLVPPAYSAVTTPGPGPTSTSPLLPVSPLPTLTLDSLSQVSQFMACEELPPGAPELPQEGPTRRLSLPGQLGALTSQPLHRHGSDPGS
row,SMILES,"hERG current change (%, negative = inhibition) at 10uM [%]"
1,CCN(CC)S(=O)(=O)c1cccc(C(=O)OCC(=O)NCCN2C(=O)CSC2=O)c1,-16.8
2,O=c1[nH]cnc2sc3c(c12)CN(Cc1ccccc1)CC3,5.56
3,CC(Oc1ccc(Br)cc1)C(=O)Nc1nc(-c2ccccn2)cs1 (stereo not drawn),-5.7
4,Fc1cccc(Nc2nc(-c3ccncc3)nc3ccccc23)c1,15.4
5,O=C(O)CCCN1C(=O)c2cccc3cccc(c23)C1=O,2.49
6,Cc1ccc(NC(=O)c2sc(=S)n(-c3cc(C)ccc3F)c2N)cc1,19.5
7,CCOc1ccccc1NC(=S)N(CCOC)C1CCN(C(C)=O)CC1,-20.2
8,C(#CC12CC3CC(CC(C3)C1)C2)CN1CCOCC1,38.9
9,N#CCCCN1C(=O)C(O)(CC(=O)c2ccc3c(c2)OCCO3)c2ccccc21 (stereo not drawn),10.3
10,CCOc1ccc(NC(=O)CSc2nc3c(c(=O)n2-c2ccccc2OC)SCC3)cc1,5.04
11,CN(CC(=O)NC1CCN(Cc2ccccc2)CC1)S(=O)(=O)c1ccc2c(c1)c(=O)n(C)c(=O)n2C,-24.1
12,Cn1c(Cn2nnc3ccccc32)nnc1SCC(=O)Nc1ccc2c(c1)OCO2,-5.62
13,CC(C)OC(=O)c1ccc(COC(=O)CNC(=O)c2ccco2)cc1,20.6
14,COc1ccc(C2(O)CCN(C(=O)NC3CCCCC3)CC2)cc1,0.0341
15,O=C(C1=C(Nc2ccccc2)c2ccccc2S(=O)(=O)N1)c1ccccc1,15.5
16,CN(C)S(=O)(=O)c1cc(NC(=O)COC(=O)Cc2ccc(Br)cc2)ccc1Cl,-1.29
17,Cc1ccc(NC(=O)CC2OC(=O)c3ccccc32)cc1S(=O)(=O)N1CCCCCC1 (stereo not drawn),-17.9
18,Cc1snc(SCc2ccc(Cl)cc2)c1C#N,17.6
19,O.O=C(O)[C@@H]1[C@H]2C[C@H]3c4[nH]c5ccccc5c4CCN3C[C@@H]2CC[C@@H]1O,9.73
20,Cc1onc(-c2ccccc2)c1C(=O)Nc1cc(C(F)(F)F)ccc1N1CCOCC1,-20.6
21,O=C(Nc1ccc(C(F)(F)F)cc1Cl)c1ccc(Cn2cc(Br)cn2)o1,-9.82
22,Cc1ccc(C(=O)OCC(=O)NCc2ccc(Cl)cc2Cl)o1,7.93
23,CN(Cc1ccc(Cl)s1)C(=O)CSc1nnc(C2CC2)n1C1CC1,-20.8

row,SMILES,"hERG current change (%, negative = inhibition) at 10uM [%]"
1,CSc1ccccc1OCc1cc(C(=O)N(C)Cc2ccncn2)no1,12.9
2,Cc1ccc(S(=O)(=O)CCC(=O)Nc2nnc(-c3ccccc3S(C)(=O)=O)o2)cc1,7.23
3,COc1ccccc1NC1=C(Cl)C(=O)N(C2CCCCC2)C1=O,2.89
4,CCN1CCN(c2nc([N+](=O)[O-])nn2C)CC1,5.29
5,CCN1CCN(c2nc(-c3ccccn3)nc3ccccc23)CC1,-56.3
6,CC(=O)Nc1ccc(Nc2nc3ccccc3n3cnnc23)cc1,-3.48
7,Cc1ccc(-n2nc(C)c3c2OC(N)=C(C#N)C3c2cccs2)cc1 (stereo not drawn),18
8,Cl.OC(COc1ccc(Br)cc1)CN1CCOCC1 (stereo not drawn),-0.178
9,CC(C)c1cc(C(=O)N2CCCC(CCC(=O)NCc3ccccc3F)C2)n(C)n1 (stereo not drawn),10.6
10,CCn1c(SCC(N)=O)nnc1-c1ccc(OC)c(OC)c1,16.5
11,COCCCNC(=O)c1cccc(NC(=O)c2ccccc2)c1,11.9
12,Cc1ccc(S(=O)(=O)N[C@H](C(=O)N2CCC(C(=O)NCC(=O)O)CC2)C(C)C)cc1,22.3
13,O=C(Nc1nnc(-c2ccc(Cl)cc2)o1)Nc1ccccc1Cl,6.43
14,Cc1cccc(Oc2ccc(Cl)cc2N)c1,12.4
15,O=C(CCS(=O)(=O)c1ccccc1)Nc1nc2cc3c(cc2s1)OCCO3,1.79
16,CCCCn1c(C(C)NC(=O)CCC)nc2ccccc21 (stereo not drawn),10.3
17,CCCCCNC(=O)c1ccc2c(=O)n(CCCOCC)c(=S)[nH]c2c1,9.13
18,Cc1cc(OCCOCCN2CCCC2)ccc1C(C)C,-53.9
19,CCOC(=O)c1cc2c(ccn2C)n1CC(=O)N(Cc1ccccc1)c1ccc(F)cc1,2.13
20,CS(=O)(=O)N1CCC(C(=O)Nc2cccc(Cl)c2Cl)CC1,12.1
21,CC(C)Cn1c(N)c(C(=O)CSc2nccn2C)c(=O)n(C)c1=O,-4.67
22,C/C(=N\NC(=S)NC(C)C)c1ccc(Cl)c([N+](=O)[O-])c1,9
23,COc1cccc(-c2nc(N3CCN(C)CC3)c3ccccc3n2)c1O,-30.8

row,SMILES,"hERG current change (%, negative = inhibition) at 10uM [%]"
1,Cc1ccc(N=C2C(=O)Nc3c(C)cccc32)cc1,5.71
2,C/C(CCc1ccc2c(c1)OCO2)=N\N=C1\NC(=O)CC(C(=O)Nc2ccc(Cl)cc2)S1 (stereo not drawn),-5.97
3,CN(C)c1ccc(/C=N/NC(=O)c2ccco2)cc1,1
4,COc1ccccc1CC(=O)Nc1cccc(C)n1,15.6
5,Nc1ccccc1C(=O)c1ccccc1,-2.49
6,CCN(CC(=O)NCc1ccc(F)cc1)C(=O)/C=C/c1ccco1,-9.64
7,Cc1ccccc1CNC(=O)Cc1cccs1,15.9
8,CCc1ccc(C2NC(c3ccc(CC)cc3)C([N+](=O)[O-])C(C)(C)C2[N+](=O)[O-])cc1 (stereo not drawn),0.716
9,Cc1ccccc1-c1nnc(SCCOc2ccc3c(C)cc(=O)oc3c2)o1,-4.38
10,CN(C)C(=O)COc1ccc(Oc2ccccc2)cc1,-30.5
11,COCCNC(=O)CN(Cc1ccc(F)cc1)C(=O)CCC(=O)Nc1nccs1,-4.06
12,CCOCCN1CCN(C(=O)CN2CCCC2=O)CC1.O=C(O)/C=C\C(=O)O,-1.99
13,Cc1ccc(CNc2nc(N)c([N+](=O)[O-])c(Nc3ccc(F)cc3)n2)cc1,4.36
14,COc1cccc(/C=N/NC(=O)Cn2nc([N+](=O)[O-])cc2C)c1,2.68
15,CC(=O)N1CCc2ccccc2C1CC(=O)O (stereo not drawn),14.4
16,CC(=O)N1CCN(C(=O)c2ccc(NS(=O)(=O)c3ccc4[nH]c(=O)[nH]c4c3)cc2)CC1,4.18
17,CCc1ccccc1NC(=O)[C@@H]1CCC(=O)N1C1OC(=O)c2ccccc21 (stereo partly drawn),20.1
18,O=C(CCNS(=O)(=O)c1cccc2nonc12)NC1CCCCC1,5.48
19,O=C(c1cc(-c2ccco2)on1)N1CCOCC1,12.5
20,CC(=O)Nc1ccc2nc(NC(=O)COc3ccc(C)cc3)sc2c1,18.1
21,O=C(O)CCN1C(=O)CC2(CCCCC2)C1=O,8.07
22,CCOc1ccccc1C(=O)Nc1nccs1,-8.92
23,CCOc1ccccc1NC(=O)CN(C)S(=O)(=O)c1cccc2nsnc12,-19

row,SMILES,"hERG current change (%, negative = inhibition) at 10uM [%]"
1,Cc1ccc(S(=O)(=O)N2CCC(C(=O)NCCCN3CCOCC3)CC2)cc1C,-6.75
2,Fc1ccc(-n2nnc(-c3cccnc3Cl)n2)cc1,6.46
3,COc1ccc(-n2nc(C(=O)NCC(=O)N3CC(C)CC(C)C3)c3ccccc3c2=O)cc1OC (stereo not drawn),4.15
4,O=S(=O)(c1ccccc1)c1nc(-c2cccs2)oc1NCc1cccnc1,-50.5
5,CCOC(=O)C1CCN(C(=O)CN(c2cc(OC)ccc2OC)S(=O)(=O)c2ccccc2)CC1,-2.73
6,O/C(=C\c1ccc2ccccc2n1)c1ccc(O)cc1O,4.33
7,O=C(CSCC(=O)N1CCCCC1)Nc1nc(-c2cccs2)cs1,-33.5
8,Cc1ccc(NC(=O)c2cc(C)nc3ccccc23)cc1,12.8
9,C/C(Cn1nnc2ccccc21)=N\OC(=O)c1cc(F)c(F)cc1Cl,-80.5
10,COc1cccc2c1O/C(=N\O)C(C(=O)Nc1cccc(Br)c1)C2 (stereo not drawn),18.6
11,N#Cc1c(Cl)c(Cl)c2nnc(-c3ccc(Br)cc3)n2c1Cl,-15.2
12,CCCCN(CC)Cc1c(O)ccc2c3c(c(=O)oc12)CCC3,-14.4
13,O=C1CN(C(=O)c2ccc(Br)o2)C(c2ccccc2)c2cc(F)ccc2N1 (stereo not drawn),-45.3
14,O=C1OCc2cc(-n3cccc3)ccc21,-6.92
15,Nc1nncn1C(=O)CCCOc1ccccc1,12.1
16,CC/C(=N\O)c1ccc(OC)c(OC)c1,21.1
17,O=c1[nH]c(=O)n(Cc2ccccc2)c(O)c1C=Nc1ccc(CN2CCOCC2)cc1,4.33
18,Fc1ccc(COc2ccc3ccccc3c2CNc2nn[nH]n2)cc1,2.22
19,O=C(CC1SC(=NCC2CCCO2)NC1=O)Nc1cccc2ccccc12 (stereo not drawn),-26.6
20,CCOC(=O)NC(NC(=O)OCC)C(=O)c1ccccc1,-0.854
21,O=C(NCCCn1ccnc1)c1nc(Cn2ccc([N+](=O)[O-])n2)no1,9.49

# Source: paper PMC4336329 (PLoS ONE, 2015)
